Measured values reported in the supplement of paper PMC9174493.
This is one part of the list. Single values of this set are uncertain. Values with irradiation are relative to irradiated vehicle.

system: A549-Dual; test: ISRE reporter (Lucia luciferase) activity, viability-corrected, relative to vehicle (fold change vs vehicle); higher = more activation of STING-IRF / NF-kB immune response reporter; conditions: 10 µM; irradiation: none

**Q.** For `CC(C)NCC(O)c1ccc(O)c(O)c1.CC(C)NCC(O)c1ccc(O)c(O)c1.O.O.O=S(=O)(O)O` (stereo not given) [Isoproterenol sulfate dihydrate], which ISRE reporter is on record?
**A.** 1.09

**Q.** For `CC(=O)O.N=C(N)NCCCC(N)C(=O)NC(CCCNC(=N)N)C(=O)N1CCCC1C(=O)N1CC(O)CC1C(=O)NCC(=O)NC(Cc1cccs1)C(=O)NC(CO)C(=O)N1Cc2ccccc2CC1C(=O)N1C(C(=O)NC(CCCNC(=N)N)C(=O)O)CC2CCCCC21` (stereo not given) [Icatibant Acetate], which ISRE reporter is on record?
**A.** 1.05

**Q.** With `O=C1C(O)=C(C2CCC(c3ccc(Cl)cc3)CC2)C(=O)c2ccccc21` (stereo not given) [Atovaquone] as the compound, how does the ISRE reporter read?
**A.** 0.713

**Q.** With `Cc1ncc(COP(=O)([O-])[O-])c(CN(CCN(CC(=O)O)Cc2c(COP(=O)([O-])O)cnc(C)c2O)CC(=O)O)c1O.[Mn].[Na+].[Na+].[Na+]` [Mangafodipir Trisodium] as the compound, how does the ISRE reporter read?
**A.** 0.663

**Q.** How did the ISRE reporter turn out when `OC1COC2C(O)COC12` (stereo not given) [Isosorbide] was run?
**A.** 0.749

**Q.** For `Nc1nc(=O)n(C2CSC(CO)O2)cc1F` (stereo not given) [Emtricitabine], which ISRE reporter is on record?
**A.** 0.614

**Q.** `CN(C)CC/C=C1/c2ccccc2COc2ccc(CC(=O)O)cc21.Cl` [Olopatadine HCl] was tested. Which ISRE reporter did it give?
**A.** 0.969

**Q.** `CCC1OC(=O)C(C)C(OC2CC(C)(OC)C(O)C(C)O2)C(C)C(OC2OC(C)CC(N(C)C)C2O)C(C)(O)CC(C)C2NC(COCCOC)OC(C2C)C1(C)O` (stereo not given) [Dirithromycin] was tested. Which ISRE reporter did it give?
**A.** 0.87

**Q.** With `CCN(CC)C(=O)Nc1ccc(OCC(O)CNC(C)(C)C)c(C(C)=O)c1.Cl` (stereo not given) [Celiprolol hydrochloride] as the compound, how does the ISRE reporter read?
**A.** 0.807

**Q.** Which ISRE reporter does the source give for `Cl.OC(CCN1CCCC1)(c1ccccc1)C1CCCCC1` (stereo not given) [Procyclidine HCl] here?
**A.** 0.854

**Q.** How did the ISRE reporter turn out when `C#CC1(O)CCC2C3CCc4cc(OC)ccc4C3CCC21C` (stereo not given) [Mestranol] was run?
**A.** 0.798

**Q.** Which ISRE reporter does the source give for `Cl.N[C@@H](CS)C(=O)O` [L-Cysteine HCl] here?
**A.** 0.795

**Q.** `OCC1OC(OCC2OC(OC3(CO)OC(CO)C(O)C3O)C(O)C(O)C2O)C(O)C(O)C1O` (stereo not given) [Raffinose] was tested. Which ISRE reporter did it give?
**A.** 0.489

**Q.** Which ISRE reporter does the source give for `CN(C)CCOc1ccc(/C(=C(/CCCl)c2ccccc2)c2ccccc2)cc1.O=C(O)CC(O)(CC(=O)O)C(=O)O` [Toremifene Citrate] here?
**A.** 1.39

**Q.** For `COC1(NC(=O)C(C(=O)[O-])c2ccc(O)cc2)C(=O)N2C(C(=O)[O-])=C(CSc3nnnn3C)COC21.[Na+].[Na+]` (stereo not given) [Latamoxef sodium], which ISRE reporter is on record?
**A.** 0.706

**Q.** `CC(CCC(=O)O)C1CCC2C3C(O)CC4CC(O)CCC4(C)C3CC(O)C12C` (stereo not given) [Cholic acid] was tested. Which ISRE reporter did it give?
**A.** 0.517

**Q.** `O=C(O)CCC(=O)Nc1ccc(S(=O)(=O)Nc2nccs2)cc1` [Succinylsulfathiazole] was tested. Which ISRE reporter did it give?
**A.** 0.651

**Q.** With `CCn1cc(C(=O)O)c(=O)c2cnc(N3CCCC3)nc21` [Piromidic Acid] as the compound, how does the ISRE reporter read?
**A.** 0.877

**Q.** Which ISRE reporter does the source give for `O.O.O.O.O=P([O-])(O)C(Cl)(Cl)P(=O)([O-])O.[Na+].[Na+]` [Clodronate disodium tetrahydrate] here?
**A.** 0.847

**Q.** Which ISRE reporter does the source give for `COCC(=O)Nc1cc(Sc2ccccc2)ccc1N=C(NC(=O)OC)NC(=O)OC` [Febantel] here?
**A.** 0.778

**Q.** Which ISRE reporter does the source give for `Oc1c(Cl)cc(Cl)cc1Sc1cc(Cl)cc(Cl)c1O` [Bithionol] here?
**A.** 0.675

**Q.** With `CC(CCC(=O)O)C1CCC2C3C(O)CC4CC(O)CCC4(C)C3CCC12C` (stereo not given) [Ursodiol] as the compound, how does the ISRE reporter read?
**A.** 0.731

**Q.** For `CN(C)c1ccc2nc3ccc(=[N+](C)C)cc-3sc2c1.[Cl-]` [Methylene Blue], which ISRE reporter is on record?
**A.** 2.25

**Q.** `Clc1ccccc1C(c1ccccc1)(c1ccccc1)n1ccnc1` [Clotrimazole] was tested. Which ISRE reporter did it give?
**A.** 0.7

**Q.** How did the ISRE reporter turn out when `CC12CC3(O)OC(O1)C1(COC(=O)c4ccccc4)C3CC21OC1OC(CO)C(O)C(O)C1O` (stereo not given) [Paeoniflorin] was run?
**A.** 0.557

**Q.** With `Cl.Nc1c(Br)cc(Br)cc1CNC1CCC(O)CC1` (stereo not given) [Ambroxol HCl] as the compound, how does the ISRE reporter read?
**A.** 0.76

**Q.** With `COCC1=C(C(=O)OC(C)OC(=O)OC(C)C)N2C(=O)C(NC(=O)/C(=N\OC)c3csc(N)n3)C2SC1` (stereo not given) [Cefpodoxime proxetil] as the compound, how does the ISRE reporter read?
**A.** 0.753

**Q.** `Cc1cc(NS(=O)(=O)c2ccc(N)cc2)no1` [Sulfamethoxazole] was tested. Which ISRE reporter did it give?
**A.** 0.771

**Q.** How did the ISRE reporter turn out when `CN(C)CCc1c[nH]c2ccc(CC3COC(=O)N3)cc12` (stereo not given) [Zolmitriptan] was run?
**A.** 0.947

**Q.** With `CCC1OC(=O)C(C)C(OC2CC(C)(OC)C(O)C(C)O2)C(C)C(OC2OC(C)CC(N(C)C)C2O)C(C)(O)CC(C)C(=O)C(C)C(O)C1(C)O.N#CS` (stereo not given) [Erythromycin thiocyanate] as the compound, how does the ISRE reporter read?
**A.** 0.859
